# Reference: paper PMC4336329 (PLoS ONE, 2015)
# Among all 310,000 compounds or so, about 2,200 (0.71%) showed an effect of 50% or more. Effects have a minus sign here. This is one part of the list.
# Biological target: human ether-à-go-go-related gene (hERG) potassium channel (human, UniProt Q12809)
# Experiment: primary screen, population patch clamp on CHO cells stably expressing hERG
# human ether-à-go-go-related gene (hERG) potassium channel, sequence (Q12809 whole entry, looked up): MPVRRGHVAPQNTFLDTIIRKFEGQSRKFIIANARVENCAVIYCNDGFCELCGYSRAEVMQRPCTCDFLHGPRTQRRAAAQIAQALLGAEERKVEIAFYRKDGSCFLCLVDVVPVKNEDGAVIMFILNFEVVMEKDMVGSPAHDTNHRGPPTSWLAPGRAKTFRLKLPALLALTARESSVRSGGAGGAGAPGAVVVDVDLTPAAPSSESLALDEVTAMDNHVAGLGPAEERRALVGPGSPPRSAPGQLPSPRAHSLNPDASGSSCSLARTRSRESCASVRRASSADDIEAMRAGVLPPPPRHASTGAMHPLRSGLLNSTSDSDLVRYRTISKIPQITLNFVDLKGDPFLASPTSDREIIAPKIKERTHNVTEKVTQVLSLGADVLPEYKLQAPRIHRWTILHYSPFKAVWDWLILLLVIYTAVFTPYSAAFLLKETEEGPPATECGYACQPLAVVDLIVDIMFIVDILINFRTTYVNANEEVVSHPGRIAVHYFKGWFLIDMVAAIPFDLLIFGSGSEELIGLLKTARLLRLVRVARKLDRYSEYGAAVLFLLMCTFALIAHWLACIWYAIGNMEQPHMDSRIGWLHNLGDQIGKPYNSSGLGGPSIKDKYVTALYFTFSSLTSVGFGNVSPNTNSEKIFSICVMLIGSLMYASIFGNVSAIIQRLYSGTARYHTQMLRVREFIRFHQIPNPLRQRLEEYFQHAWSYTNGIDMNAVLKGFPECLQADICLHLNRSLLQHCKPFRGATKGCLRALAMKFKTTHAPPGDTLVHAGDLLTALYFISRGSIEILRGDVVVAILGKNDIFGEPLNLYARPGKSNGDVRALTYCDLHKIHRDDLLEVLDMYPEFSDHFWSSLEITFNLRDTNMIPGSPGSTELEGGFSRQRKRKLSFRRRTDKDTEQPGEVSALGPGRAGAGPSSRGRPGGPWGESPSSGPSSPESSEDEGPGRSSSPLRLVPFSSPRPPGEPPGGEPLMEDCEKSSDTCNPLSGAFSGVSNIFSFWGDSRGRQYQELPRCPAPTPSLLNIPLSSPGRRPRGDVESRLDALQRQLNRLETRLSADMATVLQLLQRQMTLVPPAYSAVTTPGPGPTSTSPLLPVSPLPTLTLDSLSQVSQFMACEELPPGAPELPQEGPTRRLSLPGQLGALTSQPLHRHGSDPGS
row,SMILES,"hERG current change (%, negative = inhibition) at 1uM [%]"
1,CC(C)(C)NS(=O)(=O)c1ccc2c(c1)oc(=O)c1cc(S(=O)(=O)NC(C)(C)C)ccc12,11.3
2,CSCc1ccc(C(=O)Nc2cccc(C)c2C)cc1,-0.605
3,O=C(NCCO)C1CCN(S(=O)(=O)c2ccc(F)cc2)CC1,5.41
4,CCOCCCNC(=O)CCNC(=O)c1cc(OC)c(OC)c(OC)c1,-2.31
5,CCC(C)Sc1ccc(-c2nc3ccc(C)cn3c2NCc2ccccc2)cc1OC.O=C(O)C(F)(F)F (stereo not shown),10.2
6,Cc1cccc2sc(NC(=O)c3ccc(NS(=O)(=O)c4cccs4)cc3)nc12,-0.227
7,COc1cccc(-c2cc(C(F)(F)F)nc(N3CCCCC3)n2)c1,15.9
8,Cc1ccc(NC(=O)C2CC2c2ccccc2)c([N+](=O)[O-])c1 (stereo not shown),11.8
9,CSC(=Nc1ccc(Cl)cc1)N[n+]1ccccc1.[I-],-10.3
10,CCCc1cc(=O)c2ccc(OCC(C)=O)cc2o1,2.43
11,CC(C)OCCCNC(=O)CN1CCN(Cc2ccc(Cl)cc2)C1=O,11.4
12,CC(C)(O)C(O)COc1c2ccoc2cc2oc(=O)ccc12 (stereo not shown),14.9
13,O=C(CCC1CCCCC1)NCCN1CCOCC1,10.3
14,CCOC(=O)c1cn(Cc2ccc(Br)cc2)nn1,-0.88
15,O=C(/C(=N\O)n1cncn1)c1ccc(Br)cc1Br,-20.7
16,O=C(NCc1cccs1)C1CCN(S(=O)(=O)c2cccc3nsnc23)CC1,-3.12
17,O=S(=O)(c1cccc2cccnc12)N1CCOCC1,7.37
18,CCOC(=O)C1=C(C)N(C)C(=O)NC1c1cc2c(cc1Br)OCO2 (stereo not shown),0.604
19,CC(C)OC(=O)c1ccc(NC(=S)NC(=O)c2cncc(Br)c2)cc1,5.11
20,CN(CC(=O)Nc1ccccc1C(F)(F)F)C(=O)COc1ccccc1Cc1ccccc1,10.3
21,Cc1onc(-c2c(F)cccc2Cl)c1C(=O)N(C)CC(=O)Nc1cccc(F)c1,9.79
22,CCOC(=O)N1CCC(Nc2c(NCCN3CCN(c4ccccc4F)CC3)c(=O)c2=O)CC1,2.59

row,SMILES,"hERG current change (%, negative = inhibition) at 1uM [%]"
1,CCCN(CCC)C(=O)CC(c1ccccc1)c1ccco1 (stereo not shown),2.97
2,CC(C)CCc1noc(CN2CCC(CCN3CCCC3=O)CC2)n1,11.4
3,CCCN(Cc1cc2cc(C)ccc2[nH]c1=O)S(C)(=O)=O,16.6
4,COc1ccccc1/C=N\Nc1ccccc1[N+](=O)[O-],19.3
5,CCOc1ccc(N2C(=O)CN(C)C2=S)cc1,15
6,Cc1ccc(C2c3[nH]c4ccccc4c3C[C@H]3C(=O)N(c4ccccc4C(=O)NCCN4CCOCC4)C(=O)N23)cc1 (stereo partly shown),0.793
7,CCN(CC)CC#CC(OC)(c1ccccc1)c1ccccc1.Cl,-0.209
8,CC(Oc1cccnc1[N+](=O)[O-])C(=O)Nc1ccc(F)cc1 (stereo not shown),3.34
9,O=C(CSc1ccc2nnc(CCNC(=O)c3ccccc3)n2n1)NCc1ccccc1,5.29
10,COC(=O)c1c(-c2ccccc2Cl)noc1/C=C/N(C)C,5.41
11,Nc1nc(Nc2ccccc2)nc(NCCO)c1[N+](=O)[O-],11.4
12,COc1ccc(-c2cc(C(=O)N3CCN(c4ncccn4)CC3)c3ccccc3n2)cc1OC,7.94
13,Cc1cc(C)c2c(n1)SCC(=O)N2CC(=O)Nc1c(C)cccc1C,12.9
14,Cc1ccccc1/C=N/NC(=O)CSc1nc2ccccc2o1,5.15
15,C/C(=N\n1cnnc1)c1ccccc1,15.2
16,N#C/C(=C/c1ccc(F)cc1)c1nc(CCN2C(=O)c3ccccc3C2=O)cs1,-5.22
17,COc1ccc(C2Nc3ccc(Br)cc3C(c3ccccc3)N2CC(=O)O)cc1 (stereo not shown),17.8
18,CCOC(=O)C1(CCOc2ccccc2)CCN(Cc2ccc(OC)c(COC)c2)CC1,-77.3
19,N#Cc1cc(C(=O)c2ccccc2O)cn(-c2nccs2)c1=O,19.6
20,CCn1c(SCC(O)c2ccccc2)nnc1-c1ccccc1 (stereo not shown),5.94
21,COC(=O)c1cccc(N(CC(=O)NCC2CCCO2)C(=O)CCC(=O)Nc2cc(C)on2)c1 (stereo not shown),20.7
22,O=C(Nc1ccc(S(=O)(=O)N2CCc3ccccc3C2)cc1)C1CCCO1 (stereo not shown),-0.248

row,SMILES,"hERG current change (%, negative = inhibition) at 1uM [%]"
1,C/C(=N/NC(=O)CN1CCN(S(=O)(=O)c2ccc(Br)cc2)CC1)c1ccncc1,-44.3
2,CCOC(=O)/C(=N\Nc1ccc(Cl)cc1)Sc1nnc(-c2ccc(OC)cc2)n1C,9.25
3,O=C(NC1CCCC1)C(c1ccccn1)N(C(=O)c1csnn1)c1ccccc1F (stereo not shown),8.28
4,Cn1cc(C(=O)OCC(=O)NC2CCCCC2)c2ccccc21,20.6
5,CN(c1ccccc1)S(=O)(=O)c1cccc(C(=O)NCc2ccccc2)c1,6.18
6,CN=C(NC(=O)Nc1c(C)cccc1C)NC(=O)Nc1c(C)cccc1C,6.57
7,CCn1c(C)nc2cc(C(=O)NNC(=S)Nc3ccc(F)cc3)ccc21,16.8
8,COc1ccc(/C=N/NC(=O)CN2CCCCCCC2)c(C)c1C,5.36
9,O=C(NCCc1ccccc1)C1CCN(C2CCN(C(=O)CC3=CCCCC3)CC2)CC1,-0.152
10,Cc1ccc(-c2cc(C(=O)Nc3ccc(S(=O)(=O)Nc4nccs4)cc3)c3ccccc3n2)c(C)c1,3.81
11,O=C1c2ccccc2C(Nc2ccc3c(c2)OCCO3)N1c1ccc(Cl)cn1 (stereo not shown),7.36
12,Cc1ccc(S(=O)(=O)N(C)C)cc1NC(=O)COC(=O)COc1ccc2c(c1)CCC2,6.77
13,COc1ccccc1CNC(=O)Cn1cnc2ccccc2c1=O,9.15
14,O=C(c1cc2cc(F)ccc2[nH]1)N1CCCC(Nc2ccc(F)cc2)C1 (stereo not shown),9.51
15,CCc1cc(C(=O)N2CCN(c3ncccn3)CC2)sc1C,-3.33
16,CCCCN(C)Cc1c(O)ccc2c(-c3ccccc3)cc(=O)oc12,-4.52
17,Cc1c(C(=O)N(Cc2ccncc2)CC2CCCO2)oc2c(F)cccc12 (stereo not shown),10.7
18,COc1ccc(C2N(S(=O)(=O)c3ccccc3)CCN2S(=O)(=O)c2ccc(C)cc2)cc1 (stereo not shown),5.23
19,O=C(c1cnc(Cl)c(Cl)c1)N1CCC(Cc2ccccc2)CC1,7.05
20,C[C@H](NS(=O)(=O)c1ccc(Cl)c(Cl)c1)C(=O)OCc1cc(=O)n2cc(Br)ccc2n1,2.28
21,Cc1nc2cc(NC(=O)c3ccc(N4C(=O)CCC4=O)cc3)ccc2s1,-3.34
22,COC(=O)c1cc(C#N)c(Oc2ccccc2)nc1C,-7.29

row,SMILES,"hERG current change (%, negative = inhibition) at 1uM [%]"
1,NC(=O)COc1c(-c2ccc(Br)o2)oc2ccccc2c1=O,12.8
2,CN(CC(=O)Nc1ccc(F)c(F)c1F)C(=O)CCN1C(=O)C2CCCCC2C1=O (stereo not shown),3.68
3,O=C1NC(=O)C(CCc2ccncc2)(CCc2ccccn2)C(=O)N1c1ccc(Br)cc1 (stereo not shown),-47.3
4,CN(C)/C=C1\N=C(c2ccc(Cl)cc2Cl)OC1=O,5.34
5,Cn1c(=O)n(Cc2ccc(F)cc2)c(=O)c2c1nc1n2CCCN1Cc1ccccc1,3.85
6,N#Cc1c(-c2ccco2)cc(C2CC2)nc1N,1.08
7,CCn1cc(C(=O)NCc2cccc(F)c2)c(=O)c2cc(F)c(N3CCN(C(=O)c4ccco4)CC3)cc21,3.33
8,Cc1noc(C)c1COc1cccc(C(=O)Nc2ccc(C#N)cc2)c1,1.15
9,Cc1ccc2[nH]c3c(=O)n(N)c(=O)[nH]c3c2c1,14.6
10,Cc1ccc(Nc2c([N+](=O)[O-])ccc3c2=NC2(CCCCC2)N=3)cc1,9.22
11,Cc1ccc(C(=O)NCC(=O)OCC(=O)Nc2cc(S(=O)(=O)N3CCOCC3)ccc2C)cc1,8.44
12,COc1ccc(S(=O)(=O)N2Cc3ccccc3CC2C(=O)N2CCOCC2)cc1OC (stereo not shown),-18.6
13,N#CC(Br)Br,14.5
14,Cc1ccc(NC(=O)c2cnccn2)cc1,13.6
15,COCCCn1c(=O)c2sccc2n(Cc2cccc(F)c2)c1=O,18.7
16,CC(OC(=O)Cc1n[nH]c(=O)c2ccccc12)C(=O)Nc1ccc(F)cc1 (stereo not shown),-2.68
17,Clc1cccc(NCc2ccccc2)n1,-9.27
18,COc1cc(/C=C/C(=O)Nc2ccncc2)cc(OC)c1OC,14
19,CCCCCN(CCCCC)C(=O)C(CCC(=O)[O-])NC(=O)c1ccc(Cl)c(Cl)c1.[Na+] (stereo not shown),6.63
20,COc1ccc(NC(=O)Nc2ccc(Br)c(C)c2)cc1,22
21,COc1ccc(C(=O)NCCSc2ccccc2)cc1,12.4
22,CCN(CC)S(=O)(=O)c1cccc(NC(=O)COC(=O)c2ccc(Br)o2)c1,6.72
